Source: patent US20260263442A1, “METHOD FOR TREATING L-DOPA-INDUCED DYSKINESIA USING BEFIRADOL” (Neurolixis, Inc., priority 2023, published 2026)

Experiments:
Parameters in all cases: species or system human
Settings in all cases: in vivo
[1] = tested on: patients with moderate to severe L-DOPA-induced dyskinesia (LID) in Parkinson's disease
[2] = tested on: patients with moderate to severe L-DOPA-induced dyskinesia (LID) in Parkinson's disease; remark: listed apart in the source
[3] = tested on: patients with moderate to severe L-DOPA-induced dyskinesia (LID) in Parkinson's disease; remark: listed apart in the source
[4] = tested on: patients with moderate to severe L-DOPA-induced dyskinesia (LID) in Parkinson's disease; experiment: Columbia Suicide Severity Rating Scale (C-SSRS), Phase 2a study

**Q.** For `Cc1ccc(CNCC2(F)CCN(C(=O)c3ccc(F)c(Cl)c3)CC2)nc1` [NLX-112], which “Laboratory assessments, changes” value [1] is on record?
**A.** Its value is “no clinically significant changes in any clinical chemistry, hematology, urinalysis, or coagulation parameters”.

**Q.** And the “ECG assessments, changes” value [2]?
**A.** Its value is “no changes in HR, PR, QRS, QT, or QTc measures”.

**Q.** What about the “Physical examination findings, changes from baseline” value [3] of the same compound?
**A.** Its value is “no clinically significant changes from baseline”.

**Q.** What about the Suicidal ideation/behavior [4] of the same compound?
**A.** Its Suicidal ideation/behavior is “no indication of increased suicidal ideation/behavior”.
